Assay results: publication PMC11549370, “Two distinct regulatory pathways govern Cct2-Atg8 binding in the process of solid aggrephagy” (EMBO Reports, 2024)
These are yes or no findings as the source states them, for the method shown. For part of these data: Binding seen in cells or lysates may run through a third protein. Some results given as binding are weak or reduced against the parent protein; the word gives no strength. Where a sequence is shown, tags or fusion partners need not be part of it.

Chains of the proteins cited; added tags and fusions are not shown.
UniProt P39076: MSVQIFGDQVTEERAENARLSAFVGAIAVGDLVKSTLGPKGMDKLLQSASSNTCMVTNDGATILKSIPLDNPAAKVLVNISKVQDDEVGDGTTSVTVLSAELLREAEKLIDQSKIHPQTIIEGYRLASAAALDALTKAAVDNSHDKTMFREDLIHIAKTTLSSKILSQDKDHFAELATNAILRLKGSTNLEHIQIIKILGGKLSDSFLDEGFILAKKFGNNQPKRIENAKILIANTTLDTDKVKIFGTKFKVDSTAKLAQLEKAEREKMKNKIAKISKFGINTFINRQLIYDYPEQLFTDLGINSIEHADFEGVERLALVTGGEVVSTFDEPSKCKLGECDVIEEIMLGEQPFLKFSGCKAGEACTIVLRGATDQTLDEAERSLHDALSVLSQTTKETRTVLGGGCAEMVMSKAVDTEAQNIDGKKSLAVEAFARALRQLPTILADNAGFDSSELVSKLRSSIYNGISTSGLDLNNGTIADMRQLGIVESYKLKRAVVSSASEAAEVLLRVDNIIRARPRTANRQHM
UniProt P12612: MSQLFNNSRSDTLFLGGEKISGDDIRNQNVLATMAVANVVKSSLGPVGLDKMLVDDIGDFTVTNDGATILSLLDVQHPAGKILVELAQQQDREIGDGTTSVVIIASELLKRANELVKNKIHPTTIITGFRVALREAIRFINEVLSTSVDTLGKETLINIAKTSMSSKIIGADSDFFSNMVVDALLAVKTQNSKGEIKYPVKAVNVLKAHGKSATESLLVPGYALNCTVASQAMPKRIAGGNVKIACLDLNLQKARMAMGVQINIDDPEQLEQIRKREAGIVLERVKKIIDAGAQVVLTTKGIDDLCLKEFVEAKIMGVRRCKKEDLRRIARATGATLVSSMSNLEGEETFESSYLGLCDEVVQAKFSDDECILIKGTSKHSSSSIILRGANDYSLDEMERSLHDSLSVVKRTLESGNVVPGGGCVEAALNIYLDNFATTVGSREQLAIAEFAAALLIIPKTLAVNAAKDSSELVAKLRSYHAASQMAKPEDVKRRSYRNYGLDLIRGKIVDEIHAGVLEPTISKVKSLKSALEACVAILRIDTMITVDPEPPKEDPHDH
UniProt P39078: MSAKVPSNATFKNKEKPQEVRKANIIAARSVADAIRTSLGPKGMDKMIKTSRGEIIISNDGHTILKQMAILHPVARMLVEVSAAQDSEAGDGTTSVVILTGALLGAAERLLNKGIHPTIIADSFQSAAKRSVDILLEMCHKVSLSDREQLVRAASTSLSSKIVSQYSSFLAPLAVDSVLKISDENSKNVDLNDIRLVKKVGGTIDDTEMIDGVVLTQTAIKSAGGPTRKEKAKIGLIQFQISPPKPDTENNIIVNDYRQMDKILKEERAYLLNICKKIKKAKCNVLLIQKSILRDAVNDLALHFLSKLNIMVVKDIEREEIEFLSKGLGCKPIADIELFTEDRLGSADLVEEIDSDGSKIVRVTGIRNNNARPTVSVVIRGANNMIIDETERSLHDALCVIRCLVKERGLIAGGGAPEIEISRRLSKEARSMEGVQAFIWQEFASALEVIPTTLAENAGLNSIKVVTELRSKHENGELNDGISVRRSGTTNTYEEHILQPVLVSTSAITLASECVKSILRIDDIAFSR

B1: WT HA-Atg11 (protein, UniProt Q12527 1-1178)
chain: MADADEYSTAPTQQEITPLQTTATIINAISGECITTNVDFFVSLDKFKQFIARKWKIPPDQLLILLPYGNKLKPSMFKELLINRSFTLNDFYVYDRRLFSLVSKPTPTNLLTSKDSNPMNSPNSNDLTETLEYLIKNSHISQYQGSDTIMIKPMPSPLEDADVDLSRLNYHSVTSLLTTNLGWLSALEIDVHYFKSLIPDIIAHIKRIFDGLTVCSQYLKLYCFDVESLYNSNVQFLNQLVDNGMTSKWEKCFNDTLSKLTALEGDSLQKFINIESLLENEKSVKILNHSINGKLNKIKREIDENASFRDIITVNIDRLRQMFTPNESKFELEDQMAESFEVLVSEMRTRSRNVLDKEEEEFNSQEFLKSMNVMLEKDKKESVKTLFTISQALYSQIGELIDLKKSLQKHAVAILGNIAFTQMEILGIKRLLLNECNKDLELYKKYEVEFAQVEDLPLIYGLYLIEKYRRLSWFQQILSFISNFNQDLELFKQNELRTRNKWVKNFGSIATVFCEDLLSSSDFKRLNEYHSHTSPPNEDEEDENENSIANYRQDLVKVSQAIDNYMTQIKETDVSEPIIDLLSKTLFETKRFHIIYSNFKNNNNNSSNGNSISPEGSIALKSDDVVKGYKTRIKKLESLLHEFQYSDIGHWPQGVLNTHLKPFRGSATSINKKKFLGASVLLEPANISEVNIDSVSQANNHQIQELESNVDDLLHQLQLLKEENNRKSMQISEMGKKISDLEVEKTAYRETLTNLNQELARLTNEEQSHRTEIFTLNASFKKQLNDIISQDNEKIEKLTGDYDDVSKSRERLQMDLDESNKKHEQEVNLLKADIERLGKQIVTSEKSYAETNSSSMEKGEKFETIPLAEDPGRENQISAYTQTLQDRIFDIISTNIFILENIGLLLTFDNNNNIQIRRVKGLKKGTAQSNILDESTQMLDAHDNSLIKSPVFQKLKDEYELIKSVANGSEKDTQQSIFLGNITQLYDNKLYEVAVIRRFKDIETLAKKLTKENKIKRTLLERFQREKVTLRNFQIGDLALFLPTRENVNSVGSMSSSTSSLSSSFSSVDLSTPPPLDAMSIQSSPSVIHSNVINQASISGRDKNKLMRPWAAFTAFEESTRYFLKDEKGLTKGKEWFVGRIVTLEHFVADSPSNNPFRLPKGSVWFQVTAVVVSYQGV
B2: His-Atg8 (natural protein, S. cerevisiae, UniProt P38182 1-117, looked up)
chain: MKSTFKSEYPFEKRKAESERIADRFKNRIPVICEKAEKSDIPEIDKRKYLVPADLTVGQFVYVIRKRIMLPPEKAIFIFVNDTLPPTAALMSAIYQEHKDKDGFLYVTYSGENTFGR
notes: Atg8, S. cerevisiae; source: E. coli, purified; not shown: His, N-terminal, kept

What was measured:
[1] = target: 3×FLAG-Cct2 (S. cerevisiae) (UniProt P39076); assay: co-IP; lysates of yeast co-expressing the tagged proteins, nutrient-rich conditions, with or without Ape1 P22L; anti-FLAG or anti-HA agarose beads, western blot; also done in atg1∆, atg2∆, atg14∆ and atg8∆ strains
GST-Cct1 (S. cerevisiae) = GST-Cct1 (S. cerevisiae) (UniProt P12612); assay: pull-down; in vitro GST pulldown: GST-tagged protein on GST beads, prey added in binding buffer B (1 mM EDTA, 1 mM EGTA, 150 mM NaCl, 1% Triton X-100 in 1×PBS), 3 h, 4 °C; SDS-PAGE, Coomassie staining; both purified
GST-Cct4 (S. cerevisiae) = GST-Cct4 (S. cerevisiae) (UniProt P39078); assay: as above

Binder | binding [1] | binding (GST-Cct1 (S. cerevisiae)) | binding (GST-Cct4 (S. cerevisiae))
B1 | binds | – | –
B2 | – | no binding | no binding
